# Measurements taken from the supplement of paper PMC12217912.
# This is one part of the list. Sequences were assembled here from the parent chain. Inactive controls read about 0.05.
# B1: TEV protease; numbered along this chain (parent)
# chain: MGESLFKGPRDYNPISSSICHLTNESDGHTTSLYGIGFGPFIITNKHLFRRNNGTLVVQSLHGVFKVKDTTTLQQHLVDGRDMIIIRMPKDFPPFPQKLKFREPQREERICLVTTNFQTKSMSSMVSDTSCTFPSGDGIFWKHWIQTKDGQCGSPLVSTRDGFIVGIHSASNFTNTNNYFTSVPKNFMELLTNQEAQQWVSGWRLNADSVLWGGHKVFMVKPEEPFQPVKEATQL
# Variants of: B1
# Assay: raw area under fraction-flipped curve 0-4 h after induction (AUC4h, not background-subtracted), DNA-recorder readout of cleavage of the substrate (dimensionless); higher = more cleavage of the substrate by the protease variant
# Details: temperature: 34 °C; time window: 0-4 h after rhamnose induction
# 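Further: Bxb1 expression induced with 0.2% (w/v) L-rhamnose at OD600 near 0.5, cultures sampled hourly, flipped fraction per protease–substrate barcode pair counted by paired-end Illumina sequencing.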
Variant,area with substrate ENLDFQS,area with substrate ENLFFQS,area with substrate ENLGFQS,area with substrate ENLHFQS,area with substrate ENLKFQS,area with substrate ENLLFQS,area with substrate ENLMFQS,area with substrate ENLNFQS,area with substrate ENLQFQS,area with substrate ENLSFQS,area with substrate ENLVFQS,area with substrate ENLWFQS,area with substrate ENLEFQS,area with substrate ENLPFQS,area with substrate ENLRFQS,area with substrate ENLIFQS,area with substrate ENLTFQS
F38P,0.0329,0.0407,0.0405,0.0386,0.0425,0.0386,0.0443,0.0611,0.0315,0.0295,0.0513,0.04,–,–,–,–,–
H62V,0.0659,0.0812,–,0.0668,0.0766,–,–,0.0732,0.0651,0.0577,0.0835,–,0.0657,0.0104,–,–,–
T71W,0.06,0.0877,0.0676,0.0701,0.078,0.0617,–,0.0613,0.0642,0.0576,–,–,0.0558,–,0.0271,–,–
D82Y,0.0594,0.066,0.0478,–,0.0387,0.0565,–,0.0628,0.0591,–,–,0.0567,–,0.053,–,0.0523,–
P94I,0.0653,0.103,–,0.0872,0.0782,–,–,0.0638,–,0.0627,–,–,0.0999,0.0586,–,0.0837,–
R102A,0.0583,0.0873,–,0.0529,0.0597,0.0335,0.0503,0.0631,0.0587,–,0.0302,0.0724,0.057,0.0493,–,0.0679,–
Q105M,0.0665,0.0936,0.0661,0.0755,0.0753,0.0829,–,0.0731,0.0716,0.0549,0.0906,0.0561,0.0503,0.0545,–,–,–
E107A,0.0702,0.108,0.0716,0.0711,0.0377,–,–,0.0732,0.073,0.065,–,0.074,–,0.0647,–,0.0712,–
T114F,0.0545,0.0878,–,0.0695,0.0939,0.0589,–,–,0.0674,–,0.0922,0.0739,0.0647,0.0667,0.099,0.0907,–
K142T,0.066,0.081,0.0699,0.0642,0.0738,0.0714,0.0875,0.0622,0.0607,0.0696,0.0661,–,0.09,0.0607,0.0725,0.0907,–
I145D,0.0685,0.0523,–,0.0682,0.059,0.0343,–,0.054,0.0678,0.0586,–,0.0374,0.0677,–,0.0575,0.0602,–
P155L,0.0508,0.0613,0.0473,0.051,0.0436,0.058,0.0552,0.0593,0.0389,0.0525,0.0522,0.0463,0.0444,0.0469,0.0467,0.0569,0.0687
G166R,0.0586,0.0621,0.0499,0.053,0.0515,0.0446,–,0.0577,0.0594,0.0496,0.052,0.0592,0.0694,0.0665,0.0665,0.0552,–
S169F,0.0487,0.0568,–,0.06,0.0546,–,–,0.0589,–,0.057,0.069,0.0488,0.059,0.0756,0.0608,–,–
F180C,0.0596,0.0707,0.072,0.0669,–,0.0583,–,0.0511,0.0614,–,–,–,0.0538,0.067,0.0634,–,–
T181M,0.0606,0.0893,0.0527,0.0572,0.0659,0.0624,0.0736,0.0619,–,0.112,–,–,0.0671,–,0.0921,0.062,–
K185T,0.0649,0.0805,0.0696,0.083,0.0743,0.0672,0.0796,0.0684,0.0673,0.063,0.0981,–,0.0603,0.0468,0.0687,–,0.0625
Q194R,0.0664,0.0853,–,0.0742,0.0828,–,–,0.0618,–,0.0606,–,0.0577,0.0727,0.0537,0.0797,0.0621,–
V200N,0.0559,–,–,0.0503,0.0827,–,–,–,–,0.0502,–,–,0.0571,0.0452,–,0.053,–
W203Y,0.051,0.0911,–,0.0661,–,0.0567,0.0746,–,0.0631,–,–,–,0.0853,–,–,0.0615,–
Q227I,0.0679,0.0726,0.075,0.0691,0.0823,0.101,–,0.0691,0.0659,0.068,–,0.0563,0.0709,–,0.0645,–,–
K230E,0.0612,0.0825,–,0.0675,0.0763,–,–,0.0661,0.0815,0.0735,–,–,–,–,–,0.0695,–
C111L,–,0.101,–,0.0712,0.0663,–,–,0.0661,0.0718,0.0391,–,0.0665,–,–,–,–,–
F218P,–,0.0632,–,–,0.066,0.0615,0.0572,0.0506,–,0.0618,0.0522,0.0767,–,0.0575,–,–,–
S201K,–,–,–,–,0.0797,0.0955,–,0.0545,–,0.0802,–,0.0615,–,0.0429,–,–,–
